Laboratory results from paper PMC12065222.
Entries with a single value are a further part of the results.

Key:
[1] = IcAR-PD-1 mIL-2, fixed MCF7, 10 µg/mL antibody; details: glycan lost, control: WT PD-L1, fixed MCF7
[2] = IcAR-PD-1 mIL-2, fixed MDA-MB231, 10 µg/mL antibody; details: glycan lost, control: WT PD-L1, fixed MDA-MB231

PD-L1: N35A
other: antibody blockade of PD-L1/PD-1 interaction, other: percent blocking ([1]; Cemiplimab): 53% | other: antibody blockade of PD-L1/PD-1 interaction, other: percent blocking ([1]; Nivolumab): 98.6% | other: antibody blockade of PD-L1/PD-1 interaction, other: percent blocking ([1]; Pembrolizumab): 100% | other: antibody blockade of PD-L1/PD-1 interaction, other: percent blocking ([2]; Cemiplimab): 19.6% | other: antibody blockade of PD-L1/PD-1 interaction, other: percent blocking ([2]; Nivolumab): 83.2% | other: antibody blockade of PD-L1/PD-1 interaction, other: percent blocking ([2]; Pembrolizumab): 91.6%
